In the supplement of paper PMC3334620:
Over roughly 33,000 sequences, “E-score (-0.5 to 0.5)” has its median near -0.04; the highest 2% begin near 0.36. The list shows a part of the results.

Biological target: T1, Hmlalpha2 (UniProt P0CY09)
T1 sequence: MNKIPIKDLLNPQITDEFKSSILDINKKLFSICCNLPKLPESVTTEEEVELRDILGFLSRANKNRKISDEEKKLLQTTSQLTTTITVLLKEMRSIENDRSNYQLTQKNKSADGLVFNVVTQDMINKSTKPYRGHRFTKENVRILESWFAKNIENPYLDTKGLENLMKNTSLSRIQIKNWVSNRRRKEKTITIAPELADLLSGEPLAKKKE
Assay: PBM E-score (8-mer binding enrichment) (E-score (-0.5 to 0.5)); higher = stronger / more preferred TF binding; most listed sequences are background and not binding sites
Settings: protein concentration: 200 nM; construct: GST-full length
Protocol: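 Universal 'all 10-mer' protein binding microarrays (Agilent AMADID 015681) probed with GST-tagged S. cerevisiae TFs (full-length or DBD) made by in vitro transcription/translation (PURExpress), about 100-200 nM. Bound TF was detected with fluorescent anti-GST. Each ungapped 8-mer (which stands for itself and its reverse complement) is scored by the PBM enrichment score (E-score), a modified Wilcoxon-Mann-Whitney statistic from -0.5 to +0.5, computed with the Universal PBM Analysis Suite. Scale: above 0.35 generally sequence-specific binding.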

Sequence | PBM E-score
ATTTCGAC | 0.124
CGTCGCTC | -0.218
AATTTGAT | -0.118
AAGAGCGA | -0.2
GCAATCCA | -0.0623
GAAACTCA | 0.0193
GTCATGAC | 0.0573
ACCCTAGT | -0.02
CGAAACAA | 0.141
ACCAAATG | -0.0992
CGACTGCG | -0.0586
GGGGTGCA | -0.335
ACCATATA | 0.113
CGGATAAG | -0.258
AATCTCGA | -0.022
CGTGGCCC | -0.235
GCTCCAGC | -0.198
GCCACGGC | -0.192
AGTCGTAA | 0.146
GGGAGCAA | -0.18
GAAGCTCC | -0.218
CCCAAGCA | -0.123
CATACAGC | -0.129
AAAACCAC | 0.00461
GCGCGTGA | 0.134

Sequence | PBM E-score
GGGTACAC | 0.0689
ACACTAGG | 0.0823
CTCCATAC | -0.168
GACGCTTA | -0.0245
GGCACGGA | -0.158
CCTCTCTA | -0.308
CTCTTGTA | 0.299
GGATAATA | 0.0328
AAGGTGAC | -0.0962
AAAGATTC | 0.196
CTAACATA | 0.273
GTCGCAAC | 0.0502
GATTCCAC | -0.0363
AGGACCAC | -0.149
ACGTAGAT | 0.267
CACAAAGA | 0.152
GGCTTCGA | -0.126
CGCGCCAG | -0.117
ACCTCGTC | -0.13
GGCGGGAC | -0.194
GTCCTTTA | -0.00742
GTGCCTCA | -0.299
GGTGGAAA | -0.239
TATCCAAA | 0.121
TCTGATAA | -0.0586

Sequence | PBM E-score
GCTAAAGA | 0.131
GGTAAAAA | 0.265
ACTGTCGC | -0.165
AAGGACAC | 0.0292
CACGCGGC | 0.0499
CGATGGGC | -0.218
ATGAGCTC | -0.0421
CAATACTC | 0.119
CTAGAAAA | -0.0454
CTCTGTTC | -0.0134
GGGCTCGA | -0.0921
AAAATTGG | -0.167
CCGTTGTC | 0.0589
ACGGCTAT | 0.0646
CACGGCGC | 0.122
GGTGGTTA | -0.146
GAATTAAC | 0.309
CAGTAGAC | 0.00055
CTGGTTGC | 0.0155
AACACAGA | 0.35
CCCCCGAA | -0.18
AGCCACTG | -0.148
CATCCTAC | -0.116
GAATCTAA | 0.109
GCGATTTA | -0.00092

Sequence | PBM E-score
GATAGGGC | -0.401
AGCTGGCC | -0.0784
AAAGGAAT | 0.0205
GAGCCTCA | -0.436
GGTTGCAC | 0.0404
GCCGGAAA | -0.207
TAGTCACA | 0.0266
CCCGTATC | -0.2
CTAAGGAG | -0.315
ATCCCCAA | 0.0947
ATAGAAAT | 0.0699
CGACTATC | -0.104
AATCTGAC | 0.0953
AGTGATTA | 0.0733
CCCTCCGA | -0.229
GGCTCTCA | -0.207
CATACTTA | 0.217
TAGGGCGA | -0.216
CAAGTCTA | -0.0401
CCTGGTCC | -0.362
TAATGAGA | 0.0766
CCTATTCG | -0.25
CTCTGATA | -0.0582
CGCGCAGC | -0.0062
AAGATCAG | -0.187

Sequence | PBM E-score
ACTCGGTA | -0.1
TAGCCCTA | -0.152
CTGTGTCC | 0.0461
ACTCTAGC | -0.238
CTTTTCTC | -0.0849
AAAGTCGA | -0.0831
GAGCACGC | -0.0454
AATCATAC | 0.195
AACACGCT | 0.387
ACCGTCTA | -0.225
GTCCCGAA | -0.186
AAGACACA | 0.183
AAATATCT | 0.00858
CAGCATGA | -0.0607
ACCGGGTA | 0.0154
ATATATAT | 0.303
GCTCACAA | -0.131
ATATCAAC | 0.115
ACCGCGTG | 0.108
CTAGGCTC | -0.193
CGTCCAAC | 0.184
CGATGTCA | 0.144
ACGTCTCT | -0.0679
CCATCATC | -0.119
AACGCTAG | 0.0508

Sequence | PBM E-score
TCCAGGCA | -0.0301
AGAACGAG | 0.164
GTGCCCAC | -0.282
CCAAGTAA | 0.292
CTTTTAGA | -0.0975
AGAGTTAT | -0.0492
GACGAGTA | 0.0254
CCCCCGCC | -0.366
GACACAGC | 0.198
CCGTCCTC | -0.274
AACCTTTA | -0.0633
AAACCGGA | -0.0516
CTTACGGC | -0.301
CTGGCGCA | -0.288
GCTTTGCA | -0.106
AACACCCC | -0.0358
CACCCGCC | -0.0238
GAAAAACA | 0.169
CGGGAAGC | -0.026
GGAACTAC | 0.123
ACCTCAAA | -0.123
TAGGAGGA | -0.0737
CCCTGGCA | -0.24
ACTTACGA | 0.228
AGGGTGGA | -0.398

Sequence | PBM E-score
ATAGTATG | 0.0185
CAGTGTAG | 0.243
ATAACCTC | 0.0724
GACGATAC | 0.063
TCATAGAA | -0.0273
GAAAGTAC | 0.0263
CCACATAC | 0.122
ACACTTGA | -0.0396
AGAGCCCC | -0.329
ATAGAAGA | 0.00819
GACCAACA | 0.29
ACATAGGT | 0.335
GCATCATA | 0.202
ATCACGCC | -0.0263
CCTACGCC | -0.308
AGAGCGAG | -0.131
GTAGACGA | 0.17
ACACACCA | 0.369
GATTACGC | 0.345
ACCCGGGG | -0.223
TAGTGGGA | -0.0891
CCGAGCCA | -0.0809
ATATTGGA | -0.0473
TCAGGAAA | -0.145
CTCGGTCA | -0.085

Sequence | PBM E-score
AAGTGATC | 0.00443
GCAAATGA | -0.0665
CAAATGCA | 0.0659
AATTTGCT | 0.117
TAGTATGA | 0.128
CGAAAGAG | -0.136
AGACAATA | 0.0893
ACCGCTAA | 0.0418
CATTATCA | 0.141
AGCGAAAG | -0.166
AATTTAAT | 0.269
GCGAGAGC | -0.0684
AGCCTCTG | -0.341
AACTAAGA | 0.166
ACATCCAT | 0.121
GATCTAGA | -0.184
CAGGTGTC | -0.145
CCCAAAGA | -0.0661
AACTGCTA | -0.0585
GAAAGCGA | -0.0353
TAAGCCAA | 0.0211
TACACGCA | 0.442
ACACAATA | 0.253
GACAGTGA | 0.039
AGAATGTC | 0.0879

Sequence | PBM E-score
TACGGACA | 0.0328
ATCTTGTA | 0.383
ATAAGTCC | -0.139
ACCCAGAT | -0.26
GACGTGAC | -0.0049
CGGACGTC | -0.051
GAACCACA | 0.0162
GAGAACAC | 0.175
CGCCATAA | -0.148
TCGAAGCA | -0.122
CCTGTTCC | -0.0872
ACGGGATG | -0.0871
CGTCGCAC | -0.139
CGGTACGC | 0.0577
GGGTCACA | -0.265
GGGCAGTA | -0.213
ATGGCATC | -0.168
GGAGCGAA | -0.148
GTATTTGA | 0.189
